How the values were obtained:
[1] = target: biotinylated peptides M64-P1-P2-ΔK-(PEG9)(PEG9)-K(Biotin); assay: bio-layer interferometry (BLI) of engineered binders; format: binding; conditions: P1 = D; M64 peptide; 22° C.
Description: Bio-layer interferometry (BLI) is an optical analytical and label-free method to directly measure kinetics between two biomolecules. In this technology, one biomolecule is immobilized on a surface in the form of a small tip, this tip is then dipped in a microplate containing the second biomolecule of interest. White light is directed down the tip to the tip surface where the binding is measured as a shift in wavelength that is caused as a result of the interference between incident and reflected light. More specifically, there are two surfaces at the tip, a reference layer and the experiment layer, the latter is where the biomolecules immobilize and bind. As the distance between these two layers increases due to biomolecules binding and immobilizing, the shift between incident and reflected wavelengths increases as caused by the light waves interfering at the two layers. Therefore, the size and the number of biomolecules that bind onto the surface is proportional to the shift measured. This shift is plotted against time to give a sensogram from which kon, koff and ultimately KD can be calculated.
All binding experiments were carried out on an 8-channel Gator Prime (Gator Bio) instrument. To measure the affinity of each binder-peptide pair, biotinylated peptides were immobilized on Streptavidin coated biosensor tips (Gator Bio), which were dipped in six binder concentrations and two controls. All binding assays were performed at 22° C. in 96 well polypropylene plates (Gator Bio) and carried out in triplicates with a well volume of 200 uL. Streptavidin coated biosensors were hydrated in the baseline buffer for 10 mins before each assay. […]
Analysis of binding curves. […] Next, the qualifying curves were filled globally and the kinetic parameters kobs, kon, koff and KD were calculated along with their errors. The errors were inspected to be less than […] of its calculated value. Finally, the theoretical shift at equilibrium from the qualifying curves were filled on a steady state plot, and the KD and Rmax (theoretical maximum binding capacity in nm) were calculated from that curve. […]

M64-EAEIR = assay: colorimetric IC50 assay of hCA proteins and engineered hCAII binders, M64-EAEIR; format: biochemical; conditions: 300 nM protein, 1 mM pNPA, 25 C, 30 minutes; taken as relative Kd
Description: (§1) Kd values for the selected engineered hCAII binders were obtained using the colorimetric assay similar to described in Example 2.
(§2) In the colorimetric assay, 300 nM of wild-type carbonic anhydrase or engineered hCAII binders were aliquoted into a 96-well, clear, flat-bottom plate in 45 μL of 50 mM MOPS (pH7.5), 33 mM Na2SO4, 1 mM EDTA and 0.1% Tween 20. To each column of the plate, a 1/10 dilution series from 1 mM to 0.1 nM of each NTM-derivatized peptide was added and incubated at 25 C for 30 minutes to reach binding equilibrium. To this, 1 mM p-nitrophenylacetate (pNPA) was added to each well and screened on a plate reader at 405 nm. The initial rate of hydrolysis was observed over the first 60 seconds. […] The IC50 value measured in this experiment (see Table 12) provided relative binding affinities of the binders (Kd values).

M64-LAEIR = assay: colorimetric IC50 assay of hCA proteins and engineered hCAII binders, M64-LAEIR; format: biochemical; conditions: 300 nM protein, 1 mM pNPA, 25 C, 30 minutes; taken as relative Kd
Description: as §1, §2

M64-DAEIR = assay: colorimetric IC50 assay of hCA proteins and engineered hCAII binders, M64-DAEIR; format: biochemical; conditions: 300 nM protein, 1 mM pNPA, 25 C, 30 minutes; taken as relative Kd
Description: as §1, §2

M64-AAEIR = assay: colorimetric IC50 assay of hCA proteins and engineered hCAII binders, M64-AAEIR; format: biochemical; conditions: read-out: IC50 values (μM), M64-AAEIR; 300 nM protein, 1 mM pNPA, 25 C, 30 minutes; taken as relative Kd
Description: as §1, §2

M64-FAEIR = assay: colorimetric IC50 assay of hCA proteins and engineered hCAII binders, M64-FAEIR; format: biochemical; conditions: 300 nM protein, 1 mM pNPA, 25 C, 30 minutes; taken as relative Kd
Description: as §1, §2

| Molecule | Kd [1] [nM] | koff [1] [s⁻¹] | kon [1] [M⁻¹ s⁻¹] | IC50 (M64-EAEIR) [µM] | IC50 (M64-LAEIR) [µM] | IC50 (M64-DAEIR) [µM] | IC50 (M64-AAEIR) [µM] | IC50 (M64-FAEIR) [µM] |
| --- | --- | --- | --- | --- | --- | --- | --- | --- |
| 82 (protein, Synthetic binder, S254_0083) ASPDWGYDDKNGPEQWSKLYPIANGNNQSPVDIKTSETKHDTSLKPISVSYNPATAKEIINVGHSFRVNFEDNDNRSVLKGGPFSDSYRLYQFHFHWGSTNEHGSEHTVDGVKYSAELHVVHWNSAKYSSLAEALSKADGIAVIGVLMKVGEANPKLQKVLDALQAIKTKGKRAPFTNFDPSTLLPSSLDFWTYPGSWTAPPLYEIVTWIILKESISVSSEQLAQFRSLLSNVEGDNAVPMQHNNRPTQPLKGRTVRASF | 28.7 | 0.000119 | 4170 |  |  |  |  |  |
| 58 (protein, Carbonic anhydrase I, M=M64) DWGYDDKNGPEQWSKLYPIANGNNQSPVDIKTSETKHDTSLKPISVSYNPATAKEIINVGHSFHVNFEDNDNRSVLKGGPFSDSYRLFQFHFHWGSTNEHGSEHTVDGVKYSAELHVAHWNSAKYSSLAEAASKADGLAVIGVLMKVGEANPKLQKVLDALQAIKTKGKRAPFTNFDPSTLLPSSLDFWTYPGSLTHPPLYESVTWIICKESISVSSEQLAQFRSLLSNVEGDNAVPMQHNNRPTQPLKGRTVRASF |  |  |  | 1.09 | 0.016 | 0.136 ± 0.038 | 0.109 | 0.012 |

— patent US12467928B2, “N-terminal modifier agents and binders for treating and analyzing peptides” (Encodia, Inc., priority 2023, dated 2025)
